For assay [1], the target named is T1, FLAG-tagged POLE4 WT (human) (UniProt Q9NR33).
T1 sequence: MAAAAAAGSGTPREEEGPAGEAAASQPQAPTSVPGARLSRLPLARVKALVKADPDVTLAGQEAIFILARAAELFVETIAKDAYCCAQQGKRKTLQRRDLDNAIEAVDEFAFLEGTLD
The assay is described as follows: co-IP; IP with anti-POLE3 or anti-FLAG, 2 hr at 4°C, in 0.1% Triton-CSK from DNaseI-digested chromatin of HeLa or HeLa TRex cells; also in cells expressing MCM2 WT or Y81A-Y90A with endogenous MCM2 knocked down.

By UniProt entry, the sequences of proteins in these tests, tags left out. Where a name states a change or a piece, a line headed by the entry shows the natural chain unless it says otherwise.
UniProt Q9NRF9: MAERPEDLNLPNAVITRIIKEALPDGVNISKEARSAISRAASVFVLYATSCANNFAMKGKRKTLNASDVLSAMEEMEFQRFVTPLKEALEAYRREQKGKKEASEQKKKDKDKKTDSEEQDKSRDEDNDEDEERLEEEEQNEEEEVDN
UniProt Q07864: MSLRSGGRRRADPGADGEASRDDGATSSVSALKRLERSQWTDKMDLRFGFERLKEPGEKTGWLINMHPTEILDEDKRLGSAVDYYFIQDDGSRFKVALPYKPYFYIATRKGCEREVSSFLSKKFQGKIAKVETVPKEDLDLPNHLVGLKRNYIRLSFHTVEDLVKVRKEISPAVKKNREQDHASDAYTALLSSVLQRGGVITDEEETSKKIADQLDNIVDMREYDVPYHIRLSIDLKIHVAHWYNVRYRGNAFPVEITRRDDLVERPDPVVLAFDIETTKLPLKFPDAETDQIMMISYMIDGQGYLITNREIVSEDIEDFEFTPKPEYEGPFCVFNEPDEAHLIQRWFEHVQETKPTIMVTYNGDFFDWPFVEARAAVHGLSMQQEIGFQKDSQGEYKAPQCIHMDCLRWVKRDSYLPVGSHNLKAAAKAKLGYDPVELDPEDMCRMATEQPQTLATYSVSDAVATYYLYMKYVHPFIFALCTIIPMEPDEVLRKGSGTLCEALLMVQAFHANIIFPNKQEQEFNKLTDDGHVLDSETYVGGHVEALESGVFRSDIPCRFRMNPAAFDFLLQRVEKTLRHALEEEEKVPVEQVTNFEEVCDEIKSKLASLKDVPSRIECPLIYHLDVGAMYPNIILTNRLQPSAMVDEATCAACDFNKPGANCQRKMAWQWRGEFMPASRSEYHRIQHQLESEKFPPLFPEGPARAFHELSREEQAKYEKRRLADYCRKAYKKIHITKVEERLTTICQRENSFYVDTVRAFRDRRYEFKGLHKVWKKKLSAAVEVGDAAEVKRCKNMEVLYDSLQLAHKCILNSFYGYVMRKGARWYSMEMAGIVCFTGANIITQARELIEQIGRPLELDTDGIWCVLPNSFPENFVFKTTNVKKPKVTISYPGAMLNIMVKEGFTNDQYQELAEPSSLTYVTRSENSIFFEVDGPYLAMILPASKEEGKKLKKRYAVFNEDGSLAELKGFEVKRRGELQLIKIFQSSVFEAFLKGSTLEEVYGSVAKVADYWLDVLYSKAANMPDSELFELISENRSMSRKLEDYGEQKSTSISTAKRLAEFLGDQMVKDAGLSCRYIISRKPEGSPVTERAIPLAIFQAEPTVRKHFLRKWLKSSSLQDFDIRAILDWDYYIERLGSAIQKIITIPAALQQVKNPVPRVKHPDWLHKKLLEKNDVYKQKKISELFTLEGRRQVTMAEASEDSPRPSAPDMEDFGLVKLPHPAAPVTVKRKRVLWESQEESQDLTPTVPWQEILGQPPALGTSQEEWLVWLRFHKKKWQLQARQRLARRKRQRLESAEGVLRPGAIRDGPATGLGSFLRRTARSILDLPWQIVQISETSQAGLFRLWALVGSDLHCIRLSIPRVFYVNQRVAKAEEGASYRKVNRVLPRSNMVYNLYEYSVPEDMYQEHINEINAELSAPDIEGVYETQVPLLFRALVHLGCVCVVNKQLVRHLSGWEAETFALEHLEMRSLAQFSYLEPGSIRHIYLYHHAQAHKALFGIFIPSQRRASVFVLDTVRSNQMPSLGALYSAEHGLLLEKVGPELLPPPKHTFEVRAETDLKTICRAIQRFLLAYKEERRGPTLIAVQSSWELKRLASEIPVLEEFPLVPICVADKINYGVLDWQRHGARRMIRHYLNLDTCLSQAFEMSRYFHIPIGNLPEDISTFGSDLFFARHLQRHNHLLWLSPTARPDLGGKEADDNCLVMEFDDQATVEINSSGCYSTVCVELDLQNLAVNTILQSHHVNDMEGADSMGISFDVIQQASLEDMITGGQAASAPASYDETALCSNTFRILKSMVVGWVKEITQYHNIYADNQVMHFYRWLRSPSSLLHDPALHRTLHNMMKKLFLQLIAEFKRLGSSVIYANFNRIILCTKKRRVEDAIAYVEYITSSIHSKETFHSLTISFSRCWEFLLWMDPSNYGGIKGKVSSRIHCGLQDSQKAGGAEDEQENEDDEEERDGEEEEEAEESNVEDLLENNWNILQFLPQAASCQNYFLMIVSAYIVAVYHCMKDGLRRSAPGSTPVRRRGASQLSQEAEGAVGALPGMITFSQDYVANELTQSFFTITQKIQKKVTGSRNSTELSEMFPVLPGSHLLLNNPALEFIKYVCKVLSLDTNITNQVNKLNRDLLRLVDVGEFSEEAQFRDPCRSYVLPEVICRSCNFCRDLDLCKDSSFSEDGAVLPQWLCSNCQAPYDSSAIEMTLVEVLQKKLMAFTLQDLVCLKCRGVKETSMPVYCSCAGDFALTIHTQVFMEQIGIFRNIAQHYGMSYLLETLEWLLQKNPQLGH

Assay [2] addresses T1, FLAG-tagged POLE4 WT (human). The assay is described as follows: co-IP; IP with anti-POLE3 or anti-FLAG, 2 hr at 4°C, from the soluble fraction (CSK, 0.5% Triton) of HeLa or HeLa TRex cells.
For assay [3] the target is unchanged. The assay is described as follows: co-IP; FLAG IP from whole-cell extracts of HeLa TRex cells; western blot. For orientation: In western blotting, separated proteins are transferred to a membrane and probed.
For assay [4], the target named is T2, FLAG-tagged POLE4 F74D (human) (UniProt Q9NR33).
T2 sequence: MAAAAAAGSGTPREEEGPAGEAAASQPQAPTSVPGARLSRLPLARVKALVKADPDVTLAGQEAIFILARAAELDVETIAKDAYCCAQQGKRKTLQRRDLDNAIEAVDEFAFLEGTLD
The description is as above.

The target in assay [5] is FLAG-tagged POLE3 F44D (human) (UniProt Q9NRF9). Described as above.
Assay [6] concerns the target FLAG-tagged POLE3 WT (human) (UniProt Q9NRF9). The description is as above.
Assay [7] deals with T3, GST-tagged POLE4 F74D (human) (UniProt Q9NR33).
T3 sequence: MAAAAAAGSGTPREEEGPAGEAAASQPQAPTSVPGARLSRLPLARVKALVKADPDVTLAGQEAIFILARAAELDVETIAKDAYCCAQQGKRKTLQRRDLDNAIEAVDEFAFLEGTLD
The assay is described as follows: pull-down; GST-tagged POLE3 or POLE4 (WT or mutant) on glutathione beads with His-tagged POLE4 or POLE3; 150 mM and 1 M NaCl (Figures S1A, S1B); salt of Figure 1C not told; both purified.

The target in assay [8] is T4, GST-tagged POLE4 F74A (human) (UniProt Q9NR33).
T4 sequence: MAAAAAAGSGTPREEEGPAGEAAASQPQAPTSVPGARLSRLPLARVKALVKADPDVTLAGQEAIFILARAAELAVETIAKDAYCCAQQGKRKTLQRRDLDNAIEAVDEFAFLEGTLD
Described as above.

Assay [9] addresses endogenous POLE3 (human (endogenous in HeLa)) (UniProt Q9NRF9). In words: co-IP; IP with anti-POLE3 or anti-FLAG, 2 hr at 4°C, in 0.1% Triton-CSK from DNaseI-digested chromatin of HeLa or HeLa TRex cells; also in cells expressing MCM2 WT or Y81A-Y90A with endogenous MCM2 knocked down.
Assay [10] has as its target GST-tagged POLE3 F44D (human) (UniProt Q9NRF9). In words: pull-down; GST-tagged POLE3 or POLE4 (WT or mutant) on glutathione beads with His-tagged POLE4 or POLE3; 150 mM and 1 M NaCl (Figures S1A, S1B); salt of Figure 1C not told; both purified.
Assay [11] concerns the target GST-tagged POLE3 F44A (human) (UniProt Q9NRF9). The description is as above.

These are yes or no findings as the source states them, for the method shown. For some of these results: Binding seen in cells or lysates may run through a third protein. Some binding calls cover weakened binding; strength is not graded here. For some of these results: Tags and fused reporters may be left off the sequences shown.

Turning to “endogenous POLE3 (from UniProt Q9NRF9 1-147)”, the binding entry in assay [1] is reported as “binds”; in [2], “binds”; in [3], “binds”; in assay [4], “no binding”.

Take “POLE1, the catalytic subunit of Polε (from UniProt Q07864 1-2286)”: the binding entry in [5] is reported as “no binding”; in assay [6], “binds”; in [3] it was “binds”; in [4], “no binding”.

As to “His-tagged POLE3 (from UniProt Q9NRF9 1-147)”, the binding entry in assay [7] and in assay [8] was “no binding” each time.

B1: POLE2 (protein, UniProt P56282 1-527)
chain: MAPERLRSRALSAFKLRGLLLRGEAIKYLTEALQSISELELEDKLEKIINAVEKQPLSSNMIERSVVEAAVQECSQSVDETIEHVFNIIGAFDIPRFVYNSERKKFLPLLMTNHPAPNLFGTPRDKAEMFRERYTILHQRTHRHELFTPPVIGSHPDESGSKFQLKTIETLLGSTTKIGDAIVLGMITQLKEGKFFLEDPTGTVQLDLSKAQFHSGLYTEACFVLAEGWFEDQVFHVNAFGFPPTEPSSTTRAYYGNINFFGGPSNTSVKTSAKLKQLEEENKDAMFVFLSDVWLDQVEVLEKLRIMFAGYSPAPPTCFILCGNFSSAPYGKNQVQALKDSLKTLADIICEYPDIHQSSRFVFVPGPEDPGFGSILPRPPLAESITNEFRQRVPFSVFTTNPCRIQYCTQEITVFREDLVNKMCRNCVRFPSSNLAIPNHFVKTILSQGHLTPLPLYVCPVYWAYDYALRVYPVPDLLVIADKYDPFTTTNTECLCINPGSFPRSGFSFKVFYPSNKTVEDSKLQGF
With B1, the binding entry is reported as “binds” in [9]; “no binding” in [5]; “binds” in assay [6]; “binds” in assay [3]; “no binding” in assay [4].

B2: endogenous POLE4 (protein, UniProt Q9NR33 1-117)
chain: MAAAAAAGSGTPREEEGPAGEAAASQPQAPTSVPGARLSRLPLARVKALVKADPDVTLAGQEAIFILARAAELFVETIAKDAYCCAQQGKRKTLQRRDLDNAIEAVDEFAFLEGTLD
In the case of B2, the binding entry in assay [5] was “no binding”; in assay [6], “binds”.

B3: His-tagged POLE4 (natural protein, human, UniProt Q9NR33 1-117, looked up)
chain: MAAAAAAGSGTPREEEGPAGEAAASQPQAPTSVPGARLSRLPLARVKALVKADPDVTLAGQEAIFILARAAELFVETIAKDAYCCAQQGKRKTLQRRDLDNAIEAVDEFAFLEGTLD
notes: DNA polymerase epsilon subunit POLE4, human; cloned via Gateway into pDEST17; also called His-POLE4; source: E. coli BL21(DE3) pLysS, purified (Ni-NTA)
For the molecule B3, the binding entry in assay [10] and in assay [11] was “no binding” each time.

The values are drawn from publication PMC6179962, “POLE3-POLE4 Is a Histone H3-H4 Chaperone that Maintains Chromatin Integrity during DNA Replication” (Molecular Cell, 2018).
